In the supplement of paper PMC8728848:
The other results are listed elsewhere or left out.

How the values were obtained:
Assay in all cases: glycan array binding signal (z-score within array); higher = stronger binding
Conditions in all cases: glycan notation: IUPAC condensed, linker removed
GlcNAc(b1-6)GalNAc = target: GlcNAc(b1-6)GalNAc
Summary of the method: (§1)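 The Consortium for Functional Glycomics database supplied 3228 glycan arrays, of which those lacking an available protein sequence were dropped. The binding signal, a within-array Z-score, was averaged across arrays of the same protein sequence and across linkers. Negative scores can be read as non-binding.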

GlcNAc3Prop(b1-4)GlcNAc = target: GlcNAc3Prop(b1-4)GlcNAc
Summary of the method: as §1

[1] = target: GlcNAc6S(b1-3)Gal(b1-4)GlcNAc
Summary of the method: as §1

Kdn(a2-3)Gal(b1-3)GalNAc = target: Kdn(a2-3)Gal(b1-3)GalNAc
Summary of the method: as §1

Kdn(a2-3)Gal(b1-3)GlcNAc = target: Kdn(a2-3)Gal(b1-3)GlcNAc
Summary of the method: as §1

Kdn(a2-3)Gal(b1-4)Glc = target: Kdn(a2-3)Gal(b1-4)Glc
Summary of the method: as §1

Kdn(a2-3)Gal(b1-4)GlcNAc = target: Kdn(a2-3)Gal(b1-4)GlcNAc
Summary of the method: as §1

[2] = target: Kdn(a2-3)Gal(b1-4)[Fuc(a1-3)]GlcNAc
Summary of the method: as §1

Kdn(a2-6)Gal(b1-4)GlcNAc = target: Kdn(a2-6)Gal(b1-4)GlcNAc
Summary of the method: as §1

[3] = target: Man(a1-2)Man(a1-2)Man(a1-3)Man
Summary of the method: as §1

[4] = target: Man(a1-2)Man(a1-2)Man(a1-6)[Man(a1-3)]Man
Summary of the method: as §1

Man(a1-2)Man(a1-3)Man = target: Man(a1-2)Man(a1-3)Man
Summary of the method: as §1

[5] = target: Man(a1-2)Man(a1-3)[Man(a1-2)Man(a1-6)]Man
Summary of the method: as §1

[6] = target: Man(a1-2)Man(a1-3)[Man(a1-2)Man(a1-6)]Man(a1-6)[Man(a1-2)Man(a1-2)Man(a1-3)]Man
Summary of the method: as §1

[7] = target: Man(a1-2)Man(a1-3)[Man(a1-2)Man(a1-6)]Man(a1-6)[Man(a1-2)Man(a1-2)Man(a1-3)]Man(b1-4)GlcNAc(b1-4)GlcNAc
Summary of the method: as §1

[8] = target: Man(a1-2)Man(a1-3)[Man(a1-6)]Man(a1-6)[Man(a1-2)Man(a1-3)]Man(b1-4)GlcNAc(b1-4)GlcNAc
Summary of the method: as §1

[9] = target: Man(a1-2)Man(a1-6)[Man(a1-3)]Man(a1-6)[Man(a1-2)Man(a1-2)Man(a1-3)]Man
Summary of the method: as §1

[10] = target: Man(a1-2)Man(a1-6)[Man(a1-3)]Man(a1-6)[Man(a1-2)Man(a1-2)Man(a1-3)]Man(b1-4)GlcNAc(b1-4)GlcNAc
Summary of the method: as §1

Man(a1-3)[Man(a1-6)]Man = target: Man(a1-3)[Man(a1-6)]Man
Summary of the method: as §1

[11] = target: Man(a1-3)[Man(a1-6)]Man(a1-6)[Man(a1-2)Man(a1-3)]Man(b1-4)GlcNAc(b1-4)GlcNAc
Summary of the method: as §1

[12] = target: Man(a1-3)[Man(a1-6)]Man(a1-6)[Man(a1-3)]Man
Summary of the method: as §1

[13] = target: Man(a1-3)[Man(a1-6)]Man(a1-6)[Man(a1-3)]Man(b1-4)GlcNAc(b1-4)GlcNAc
Summary of the method: as §1

[14] = target: Man(a1-3)[Man(a1-6)]Man(b1-4)GlcNAc(b1-4)GlcNAc
Summary of the method: as §1

Man(a1-6)Man = target: Man(a1-6)Man
Summary of the method: as §1

Man(b1-4)GlcNAc = target: Man(b1-4)GlcNAc
Summary of the method: as §1

Neu5Ac(a2-3)Gal = target: Neu5Ac(a2-3)Gal
Summary of the method: as §1

[15] = target: Neu5Ac(a2-3)Gal(b1-3)GalNAc
Summary of the method: as §1

[16] = target: Neu5Ac(a2-3)Gal(b1-3)GalNAc(b1-3)Gal(a1-4)Gal(b1-4)Glc
Summary of the method: as §1

[17] = target: Neu5Ac(a2-3)Gal(b1-3)GalNAc(b1-4)[Neu5Ac(a2-3)]Gal(b1-4)Glc
Summary of the method: as §1

[18] = target: Neu5Ac(a2-3)Gal(b1-3)GalNAc(b1-4)[Neu5Ac(a2-8)Neu5Ac(a2-3)]Gal(b1-4)Glc
Summary of the method: as §1

[19] = target: Neu5Ac(a2-3)Gal(b1-3)GalNAc6S
Summary of the method: as §1

[20] = target: Neu5Ac(a2-3)Gal(b1-3)GlcNAc
Summary of the method: as §1

[21] = target: Neu5Ac(a2-3)Gal(b1-3)GlcNAc(b1-3)Gal(b1-3)GlcNAc
Summary of the method: as §1

[22] = target: Neu5Ac(a2-3)Gal(b1-3)GlcNAc(b1-3)Gal(b1-4)GlcNAc
Summary of the method: as §1

[23] = target: Neu5Ac(a2-3)Gal(b1-3)GlcNAc(b1-3)GalNAc
Summary of the method: as §1

[24] = target: Neu5Ac(a2-3)Gal(b1-3)GlcNAc6S
Summary of the method: as §1

[25] = target: Neu5Ac(a2-3)Gal(b1-3)[Fuc(a1-4)]GlcNAc
Summary of the method: as §1

[26] = target: Neu5Ac(a2-3)Gal(b1-3)[Fuc(a1-4)]GlcNAc(b1-3)Gal(b1-3)[Fuc(a1-4)]GlcNAc
Summary of the method: as §1

[27] = target: Neu5Ac(a2-3)Gal(b1-3)[Fuc(a1-4)]GlcNAc(b1-3)Gal(b1-4)[Fuc(a1-3)]GlcNAc
Summary of the method: as §1

[28] = target: Neu5Ac(a2-3)Gal(b1-3)[Neu5Ac(a2-3)Gal(b1-4)]GlcNAc
Summary of the method: as §1

[29] = target: Neu5Ac(a2-3)Gal(b1-3)[Neu5Ac(a2-6)]GalNAc
Summary of the method: as §1

Neu5Ac(a2-3)Gal(b1-4)Glc = target: Neu5Ac(a2-3)Gal(b1-4)Glc
Summary of the method: as §1

[30] = target: Neu5Ac(a2-3)Gal(b1-4)GlcNAc
Summary of the method: as §1

[31] = target: Neu5Ac(a2-3)Gal(b1-4)GlcNAc(b1-2)Man(a1-3)[GlcNAc(b1-2)Man(b1-4)GlcNAc(b1-2)Man(a1-6)]Man(b1-4)GlcNAc(b1-4)GlcNAc
Summary of the method: as §1

[32] = target: Neu5Ac(a2-3)Gal(b1-4)GlcNAc(b1-2)Man(a1-3)[Neu5Ac(a2-6)Gal(b1-4)GlcNAc(b1-2)Man(a1-6)]Man(b1-4)GlcNAc(b1-4)GlcNAc
Summary of the method: as §1

B1: Gz-CVNH (Gibberella zeae) (protein)
chain: MGSSHHHHHHSSGLVPRGSHMGNFHESSNNIWLEDGHILHAECGNGEGDYVESTLDLDYYIGNDDGSFSWGGENFSGSASNITLDIEGDDNIPVLRAELNPMDGDPVEANVNLSERIGNDCGTLIFLA
GlcNAc(b1-6)GalNAc
  glycan array binding signal (z-score): -0.143
GlcNAc3Prop(b1-4)GlcNAc
  glycan array binding signal (z-score): -0.132
[1]
  glycan array binding signal (z-score): -0.162
Kdn(a2-3)Gal(b1-3)GalNAc
  glycan array binding signal (z-score): -0.14
Kdn(a2-3)Gal(b1-3)GlcNAc
  glycan array binding signal (z-score): -0.153
Kdn(a2-3)Gal(b1-4)Glc
  glycan array binding signal (z-score): -0.149
Kdn(a2-3)Gal(b1-4)GlcNAc
  glycan array binding signal (z-score): -0.117
[2]
  glycan array binding signal (z-score): -0.144
Kdn(a2-6)Gal(b1-4)GlcNAc
  glycan array binding signal (z-score): -0.11
[3]
  glycan array binding signal (z-score): 3.53
[4]
  glycan array binding signal (z-score): 7.75
Man(a1-2)Man(a1-3)Man
  glycan array binding signal (z-score): 0.004
[5]
  glycan array binding signal (z-score): 1.63
[6]
  glycan array binding signal (z-score): 12.7
[7]
  glycan array binding signal (z-score): 2.82
[8]
  glycan array binding signal (z-score): 5.4
[9]
  glycan array binding signal (z-score): 9.9
[10]
  glycan array binding signal (z-score): 8.33
Man(a1-3)[Man(a1-6)]Man
  glycan array binding signal (z-score): -0.137
[11]
  glycan array binding signal (z-score): 1.34
[12]
  glycan array binding signal (z-score): -0.133
[13]
  glycan array binding signal (z-score): 0.15
[14]
  glycan array binding signal (z-score): -0.119
Man(a1-6)Man
  glycan array binding signal (z-score): -0.129
Man(b1-4)GlcNAc
  glycan array binding signal (z-score): -0.177
Neu5Ac(a2-3)Gal
  glycan array binding signal (z-score): -0.14
[15]
  glycan array binding signal (z-score): -0.069
[16]
  glycan array binding signal (z-score): -0.112
[17]
  glycan array binding signal (z-score): -0.097
[18]
  glycan array binding signal (z-score): -0.141
[19]
  glycan array binding signal (z-score): -0.119
[20]
  glycan array binding signal (z-score): -0.131
[21]
  glycan array binding signal (z-score): -0.158
[22]
  glycan array binding signal (z-score): -0.126
[23]
  glycan array binding signal (z-score): -0.173
[24]
  glycan array binding signal (z-score): -0.141
[25]
  glycan array binding signal (z-score): -0.159
[26]
  glycan array binding signal (z-score): -0.074
[27]
  glycan array binding signal (z-score): -0.092
[28]
  glycan array binding signal (z-score): -0.153
[29]
  glycan array binding signal (z-score): -0.098
Neu5Ac(a2-3)Gal(b1-4)Glc
  glycan array binding signal (z-score): -0.125
[30]
  glycan array binding signal (z-score): -0.145
[31]
  glycan array binding signal (z-score): -0.137
[32]
  glycan array binding signal (z-score): -0.143
